Reference: the supplement of paper PMC10126150
Sequences with one replicate were seen in a single cluster, so their values are uncertain.
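Further: ATP exposure 15 min at 22 °C before imaging.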

What follows are sequences tested on ATP (assay: switch fluorescence ratio, 500 uM ATP over buffer (Cy3 cluster intensity, sum of 5 cycles each) (fold (ratio)); higher = stronger signal-on switching upon ATP binding; sequences stand for … in TCGTCGGCAGCGTCAGATGTGTATAAGAGACAGTTTTTTTTTTTTTTTTTTTTTTTTT…TC). Settings: aptamer strand: ATP DNA aptamer (quencher-CACCTGGGGGAGTATTGCGGAGGAAGG + anchor), 100 nM annealed; ATP concentration: 500 uM; one replicate.
Method in brief: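 The fluorescence ratio divides summed target-cycle Cy3 intensity by summed buffer-cycle Cy3 intensity for each cluster and is averaged per switch-domain sequence. Cy3-labelled switching-strand clusters on a modified Illumina MiSeq flow-cell were annealed to 100 nM quencher-labelled ATP aptamer, then imaged in selection buffer and again after 15 min with 500 uM ATP at 22 °C. Five such cycles were run, with NaOH stripping and re-annealing between them, and clusters outside 100-1000 RFU were excluded.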
CATTCTGACT was tested, and the switch fluorescence ratio was 1.01.
CATTGATTCG showed a switch fluorescence ratio of 1.01.
CATTGGCTAG showed a switch fluorescence ratio of 1.01.
In the case of CATTGTACGA, the switch fluorescence ratio is reported as 0.997.
Sequence CATTGTCTGG has a switch fluorescence ratio of 0.992.
CATTGTGCTT was tested, and the switch fluorescence ratio was 1.02.
Sequence CATTTAAGGA has a switch fluorescence ratio of 0.975.
Work on CATTTAGAGC yielded a switch fluorescence ratio of 1.03.
Work on CATTTCGTGC yielded a switch fluorescence ratio of 0.986.
For CATTTGAGGC, the switch fluorescence ratio was 1.04.
With CATTTGCCGT the switch fluorescence ratio was 1.01.
In the case of CATTTGCTGT, the switch fluorescence ratio is reported as 0.968.
In the case of CATTTGGCGA, the switch fluorescence ratio is reported as 1.03.
Work on CATTTGTCAC yielded a switch fluorescence ratio of 1.04.
For CATTTTGGCG, the switch fluorescence ratio was 0.984.
With CCAAAAGGCC the switch fluorescence ratio was 1.03.
Sequence CCAAAATCCT has a switch fluorescence ratio of 1.85.
Sequence CCAAAATCGT has a switch fluorescence ratio of 0.989.
Work on CCAAACAGGG yielded a switch fluorescence ratio of 1.
With CCAAACATT the switch fluorescence ratio was 1.02.
CCAAAGTCGG gave a switch fluorescence ratio of 1.11.
CCAAAGTGTA was tested, and the switch fluorescence ratio was 1.06.
Sequence CCAAATACAA has a switch fluorescence ratio of 1.03.
For CCAAATTATT, the switch fluorescence ratio was 0.931.
Sequence CCAACAACGG has a switch fluorescence ratio of 1.05.
Sequence CCAACAAGCT has a switch fluorescence ratio of 1.03.
For CCAACTTGGG, the switch fluorescence ratio was 1.02.
CCAAGAAACT showed a switch fluorescence ratio of 1.03.
For CCAAGAGTAC, the switch fluorescence ratio was 0.992.
For CCAAGATTAC, the switch fluorescence ratio was 2.44.
Work on CCAAGCAGGT yielded a switch fluorescence ratio of 1.46.
For CCAAGCTGTG, the switch fluorescence ratio was 0.978.
CCAAGTATGC showed a switch fluorescence ratio of 1.01.
CCAAGTTATG was tested, and the switch fluorescence ratio was 1.04.
With CCAAGTTTCC the switch fluorescence ratio was 1.18.
For CCAATAGCC, the switch fluorescence ratio was 1.13.
For CCAATAGGTG, the switch fluorescence ratio was 2.95.
CCAATAGTTA showed a switch fluorescence ratio of 1.
Work on CCAATATTGA yielded a switch fluorescence ratio of 1.03.
With CCAATCCGGG the switch fluorescence ratio was 1.03.
For CCAATCCTAA, the switch fluorescence ratio was 1.01.
CCAATCGGGA was tested, and the switch fluorescence ratio was 1.02.
With CCAATGATTA the switch fluorescence ratio was 0.993.
With CCAATGTATT the switch fluorescence ratio was 1.11.
In the case of CCAATTTGGT, the switch fluorescence ratio is reported as 1.01.
CCACAAAAAC gave a switch fluorescence ratio of 1.04.
With CCACAATGTG the switch fluorescence ratio was 1.07.
Sequence CCACAGAATG has a switch fluorescence ratio of 1.02.
CCACAGATAA gave a switch fluorescence ratio of 1.09.
For CCACAGCCCG, the switch fluorescence ratio was 1.12.
CCACCCCTTA gave a switch fluorescence ratio of 1.05.
For CCACCCGTCC, the switch fluorescence ratio was 1.46.
In the case of CCACCGATTG, the switch fluorescence ratio is reported as 1.18.
In the case of CCACCGGTG, the switch fluorescence ratio is reported as 1.69.
In the case of CCACGAGCCC, the switch fluorescence ratio is reported as 1.39.
With CCACGCGTAA the switch fluorescence ratio was 2.09.
CCACGCTGTT showed a switch fluorescence ratio of 1.16.
CCACTAGTTT showed a switch fluorescence ratio of 0.971.
CCACTGTCTG was tested, and the switch fluorescence ratio was 1.03.
Work on CCACTTTAGC yielded a switch fluorescence ratio of 1.13.
Work on CCAGACGATG yielded a switch fluorescence ratio of 0.972.
With CCAGAGAGC the switch fluorescence ratio was 0.975.
CCAGATGGAT was tested, and the switch fluorescence ratio was 1.04.
For CCAGATGGC, the switch fluorescence ratio was 1.06.
Sequence CCAGATTTGG has a switch fluorescence ratio of 1.02.
With CCAGCAACAG the switch fluorescence ratio was 3.28.
CCAGCAACGT was tested, and the switch fluorescence ratio was 1.09.
CCAGCACGGG showed a switch fluorescence ratio of 1.09.
With CCAGCACTTA the switch fluorescence ratio was 1.08.
Work on CCAGCCCCGC yielded a switch fluorescence ratio of 1.1.
Sequence CCAGCGAACC has a switch fluorescence ratio of 1.47.
CCAGCGGCGA showed a switch fluorescence ratio of 1.12.
CCAGCTTTCT gave a switch fluorescence ratio of 1.03.
CCAGCTTTGT gave a switch fluorescence ratio of 0.988.
Work on CCAGGAAGTT yielded a switch fluorescence ratio of 0.984.
With CCAGGAGAGC the switch fluorescence ratio was 1.13.
In the case of CCAGGCCGGC, the switch fluorescence ratio is reported as 1.03.
For CCAGGGCTTC, the switch fluorescence ratio was 1.05.
For CCAGGGGAGC, the switch fluorescence ratio was 1.26.
CCAGGGTGGC was tested, and the switch fluorescence ratio was 1.28.
CCAGGTCCAC was tested, and the switch fluorescence ratio was 1.03.
In the case of CCAGGTGCTG, the switch fluorescence ratio is reported as 1.82.
With CCAGGTGTGA the switch fluorescence ratio was 3.8.
Work on CCAGTACCGT yielded a switch fluorescence ratio of 1.01.
Sequence CCAGTCCAGC has a switch fluorescence ratio of 1.03.
Sequence CCAGTGGAGC has a switch fluorescence ratio of 1.06.
In the case of CCAGTTAATC, the switch fluorescence ratio is reported as 1.05.
CCAGTTAGGT was tested, and the switch fluorescence ratio was 1.09.
CCATAACACG was tested, and the switch fluorescence ratio was 1.05.
For CCATAATTAC, the switch fluorescence ratio was 1.24.
CCATAATTAG was tested, and the switch fluorescence ratio was 0.932.
For CCATACATCT, the switch fluorescence ratio was 1.02.
CCATAGGCAC gave a switch fluorescence ratio of 1.16.
CCATAGTTCT was tested, and the switch fluorescence ratio was 0.991.
Work on CCATATGGAT yielded a switch fluorescence ratio of 1.01.
In the case of CCATCAAGTA, the switch fluorescence ratio is reported as 1.05.
Sequence CCATCAATG has a switch fluorescence ratio of 1.01.
Sequence CCATCAGTGG has a switch fluorescence ratio of 1.
CCATCCGGCC was tested, and the switch fluorescence ratio was 1.55.
Work on CCATGACCT yielded a switch fluorescence ratio of 1.36.
CCATGCCATT showed a switch fluorescence ratio of 0.998.
CCATGCCGTA was tested, and the switch fluorescence ratio was 1.05.
CCATGGAGTG gave a switch fluorescence ratio of 1.02.
CCATGGATAG was tested, and the switch fluorescence ratio was 1.02.
Work on CCATGGCCGT yielded a switch fluorescence ratio of 1.01.
In the case of CCATGGTATA, the switch fluorescence ratio is reported as 0.966.
CCATGGTTCC was tested, and the switch fluorescence ratio was 1.02.
Sequence CCATGTCAAA has a switch fluorescence ratio of 1.04.
In the case of CCATGTTACA, the switch fluorescence ratio is reported as 1.
In the case of CCATGTTACC, the switch fluorescence ratio is reported as 1.05.
For CCATTACATC, the switch fluorescence ratio was 1.
In the case of CCATTCACCA, the switch fluorescence ratio is reported as 1.02.
In the case of CCATTCGGCA, the switch fluorescence ratio is reported as 1.07.
CCATTGACGA showed a switch fluorescence ratio of 1.06.
CCATTGCGAT gave a switch fluorescence ratio of 4.79.
Work on CCATTGCGGA yielded a switch fluorescence ratio of 1.07.
For CCATTGTCC, the switch fluorescence ratio was 1.19.
CCATTTCAAC gave a switch fluorescence ratio of 1.04.
CCATTTGGGT was tested, and the switch fluorescence ratio was 0.986.
Work on CCCAACCGCG yielded a switch fluorescence ratio of 1.41.
CCCAACGACC gave a switch fluorescence ratio of 2.27.
CCCAAGAT gave a switch fluorescence ratio of 1.18.
In the case of CCCAAGTATG, the switch fluorescence ratio is reported as 1.05.
For CCCAATTGAA, the switch fluorescence ratio was 1.02.
CCCACGGATA showed a switch fluorescence ratio of 1.1.
CCCACTGTTG was tested, and the switch fluorescence ratio was 1.33.
CCCAGGAATT showed a switch fluorescence ratio of 1.06.
With CCCAGGAGAT the switch fluorescence ratio was 1.44.
With CCCAGGCACA the switch fluorescence ratio was 1.37.
For CCCAGGCCCC, the switch fluorescence ratio was 1.21.
CCCAGGGCCG was tested, and the switch fluorescence ratio was 1.08.
Sequence CCCAGGGTTT has a switch fluorescence ratio of 1.62.
In the case of CCCAGTAATC, the switch fluorescence ratio is reported as 3.74.
For CCCAGTGGCA, the switch fluorescence ratio was 1.18.
Work on CCCAGTGTAA yielded a switch fluorescence ratio of 1.18.
For CCCAGTGTGT, the switch fluorescence ratio was 4.21.
In the case of CCCATCGGAA, the switch fluorescence ratio is reported as 1.04.
CCCATGGTCG gave a switch fluorescence ratio of 1.17.
CCCCATACAT gave a switch fluorescence ratio of 1.05.
For CCCCATACGT, the switch fluorescence ratio was 1.24.
For CCCCATAGAC, the switch fluorescence ratio was 2.06.
CCCCCACATC was tested, and the switch fluorescence ratio was 1.81.
Sequence CCCCCCCGAA has a switch fluorescence ratio of 2.08.
With CCCCCGA the switch fluorescence ratio was 1.01.
CCCCCTGTTT showed a switch fluorescence ratio of 1.26.
CCCCCTTTGT gave a switch fluorescence ratio of 1.11.
For CCCCGAATG, the switch fluorescence ratio was 1.42.
For CCCCGCTAGT, the switch fluorescence ratio was 3.18.
In the case of CCCCGGCCGC, the switch fluorescence ratio is reported as 1.21.
Work on CCCCGGTATA yielded a switch fluorescence ratio of 2.63.
CCCCGTGTTC showed a switch fluorescence ratio of 1.63.
Sequence CCCCTCGGCT has a switch fluorescence ratio of 1.08.
Work on CCCCTCGTGG yielded a switch fluorescence ratio of 0.988.
For CCCCTGAGTT, the switch fluorescence ratio was 1.07.
CCCCTTACAA showed a switch fluorescence ratio of 1.03.
With CCCCTTCTGG the switch fluorescence ratio was 1.01.
In the case of CCCGACCCGT, the switch fluorescence ratio is reported as 1.09.
For CCCGACCCTT, the switch fluorescence ratio was 1.06.
With CCCGCCCATG the switch fluorescence ratio was 1.35.
Sequence CCCGCCCTAA has a switch fluorescence ratio of 1.25.
For CCCGCGCATG, the switch fluorescence ratio was 3.19.
In the case of CCCGCTGAGT, the switch fluorescence ratio is reported as 1.23.
In the case of CCCGCTTGCC, the switch fluorescence ratio is reported as 1.4.
Sequence CCCGGACTAT has a switch fluorescence ratio of 1.09.
CCCGGAGGGT gave a switch fluorescence ratio of 1.02.
CCCGGCATTA showed a switch fluorescence ratio of 3.31.
Work on CCCGGCCTCT yielded a switch fluorescence ratio of 1.14.
In the case of CCCGGGAACG, the switch fluorescence ratio is reported as 1.01.
With CCCGGGGCTT the switch fluorescence ratio was 1.11.
With CCCGGTCCGT the switch fluorescence ratio was 1.03.
CCCGGTCGCC was tested, and the switch fluorescence ratio was 0.983.
CCCGGTTAGC gave a switch fluorescence ratio of 1.05.
With CCCGTCACTA the switch fluorescence ratio was 1.13.
CCCGTGCCCC was tested, and the switch fluorescence ratio was 1.17.
With CCCGTGTTA the switch fluorescence ratio was 0.984.
With CCCGTGTTCG the switch fluorescence ratio was 0.916.
CCCGTTGAGG gave a switch fluorescence ratio of 0.993.
CCCTACTTGG was tested, and the switch fluorescence ratio was 1.01.
In the case of CCCTCACGCT, the switch fluorescence ratio is reported as 2.21.
With CCCTCATGAG the switch fluorescence ratio was 1.04.
CCCTCGGTTT gave a switch fluorescence ratio of 1.05.
With CCCTGAGACA the switch fluorescence ratio was 1.04.
For CCCTGCCATA, the switch fluorescence ratio was 2.31.
For CCCTGCGTGC, the switch fluorescence ratio was 4.01.
For CCCTGCTCGG, the switch fluorescence ratio was 1.06.
For CCCTGGAATG, the switch fluorescence ratio was 1.09.
CCCTGGTCTA was tested, and the switch fluorescence ratio was 0.967.
CCCTTACAGT was tested, and the switch fluorescence ratio was 1.03.
Sequence CCCTTACGCA has a switch fluorescence ratio of 1.86.
For CCCTTCGGAG, the switch fluorescence ratio was 1.16.
CCCTTGTTCG showed a switch fluorescence ratio of 0.974.
In the case of CCCTTTATAC, the switch fluorescence ratio is reported as 1.65.
For CCCTTTGTGC, the switch fluorescence ratio was 1.09.
Work on CCCTTTGTTA yielded a switch fluorescence ratio of 1.03.
CCCTTTTAGT was tested, and the switch fluorescence ratio was 1.02.
CCGAAAATTA gave a switch fluorescence ratio of 1.57.
CCGAACCATT was tested, and the switch fluorescence ratio was 1.35.
For CCGAAGTCTT, the switch fluorescence ratio was 1.8.
Sequence CCGACGTGTA has a switch fluorescence ratio of 6.67.
For CCGACTAAAG, the switch fluorescence ratio was 1.19.
